PubChem BioAssay AID588591 (National Center for Advancing Translational Sciences (NCATS), 2011)
Out of some 390,000 compounds screened, about 4,700 (1.2%) were called active. Inconclusive results, whose numbers are uncertain, are shown with a selection of clear calls. Calls come from the whole dose curve; as a rule, active = well fitted inhibition curve with a large enough effect; inconclusive = small, poorly fitted or top-dose-only effect, or another doubt; inactive = no such curve, though single readings can be large or run the other way. Where the call is inconclusive, the potency comes from a doubtful curve fit.

What follows are compounds tested against DNA polymerase eta (Homo sapiens) (UniProt Q9Y253) (assay: qHTS for Inhibitors of Polymerase Eta). Settings: recombinant Pol eta, fluorescent DNA replication assay; series mostly up to 114 µM; activity change, negative = inhibition: at the top concentration.
Chain of UniProt Q9Y253 (Q9Y253 whole entry, looked up): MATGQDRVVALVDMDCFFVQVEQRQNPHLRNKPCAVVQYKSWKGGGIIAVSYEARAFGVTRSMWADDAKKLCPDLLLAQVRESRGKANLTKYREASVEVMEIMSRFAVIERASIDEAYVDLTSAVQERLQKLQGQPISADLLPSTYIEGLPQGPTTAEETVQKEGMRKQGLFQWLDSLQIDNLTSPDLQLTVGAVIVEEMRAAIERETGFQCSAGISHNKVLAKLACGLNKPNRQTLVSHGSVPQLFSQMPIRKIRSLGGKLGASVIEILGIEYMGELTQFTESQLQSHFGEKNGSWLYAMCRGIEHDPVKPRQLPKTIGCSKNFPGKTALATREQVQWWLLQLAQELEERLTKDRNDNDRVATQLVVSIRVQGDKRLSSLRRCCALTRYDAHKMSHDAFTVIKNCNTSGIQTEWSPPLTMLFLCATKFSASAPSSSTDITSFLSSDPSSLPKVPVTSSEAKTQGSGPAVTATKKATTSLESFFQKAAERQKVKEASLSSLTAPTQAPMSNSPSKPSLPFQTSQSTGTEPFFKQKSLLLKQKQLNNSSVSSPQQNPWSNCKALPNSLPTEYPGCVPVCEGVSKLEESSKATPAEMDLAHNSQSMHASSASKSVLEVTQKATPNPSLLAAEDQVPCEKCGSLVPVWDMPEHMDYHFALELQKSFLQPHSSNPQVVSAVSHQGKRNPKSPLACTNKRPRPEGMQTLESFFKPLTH
How it was run: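 Fluorescent replication assay: 50 nM final substrate added after a 15 min room-temperature compound preincubation with 10 nM enzyme. Signal taken at 0 min and again at 10 min.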
% is set by controls: 0 for no effect and ±100 for the full control effect; potency is the fitted concentration of half-maximal effect; tags give direction and shape of the fitted curve.

Structure (SMILES)	Potency	activity change, negative = inhibition
CC(NCC1(N2CCOCC2)CCCCC1)C(=O)Nc1ccc(Cl)cc1Cl (stereo not given)	inconclusive: 79.4 µM [inhibitor, partial curve, poor fit]	
CCCNC(=O)c1ccc(-c2nc3ccccc3s2)s1	inconclusive: 20 µM [inhibitor, single point]	
C=C(C)C(=O)Nc1cccc(C2=NOC3(C2)C[C@H](C(N)=O)N(C(=O)C(c2ccccc2)c2ccccc2)C3)c1 (stereo not given in full)	active: 3.98 µM	
COc1ccc(C(=O)COC(=O)Cn2[nH]c(=O)c3ccccc3c2=O)c(OC)c1		inactive: -2.5%
C=CCn1c(C)cc(C(=O)COC(=O)c2ccc(N)c([N+](=O)[O-])c2)c1C	inconclusive: 1 µM [inhibitor, full curve]	
CN(C)CCCOC(=O)COc1ccc(C(C)(C)C)cc1	inconclusive: 89.1 µM [inhibitor, partial curve, poor fit]	
Cc1cc(C)n2cc(CSCc3ccco3)nc2n1	inconclusive: 31.6 µM [inhibitor, single point]	
Cc1ccn2c(=O)nc(SCC(=O)NCc3ccccc3Cl)nc2c1	active: 17.8 µM	
CSc1nc2nc(-c3cccs3)cc(C(F)(F)F)c2c(=O)[nH]1		inactive: -21.6%
CN1CCN(c2ccc(S(=O)(=O)N3CCCCC3)cc2NC(=O)COc2ccc(F)cc2)CC1	inconclusive: 112 µM [inhibitor, partial curve, poor fit]	
CCCCn1c(N)c(N(CCOC)C(=O)c2ccc(COc3ccccc3)o2)c(=O)[nH]c1=O		inactive: -11.1%
CCn1c2ccccc2c2cc(NC(=O)COC(=O)c3ccc(NC(=O)CC#N)cc3)ccc21	inconclusive: 7.94 µM [inhibitor, full curve, poor fit]	
Fc1cc(F)c2nc(Nc3nc4cc5c(cc4s3)OCO5)sc2c1	active: 2.82 µM	
Cc1cc(-c2ccc(S(=O)(=O)Nc3cc(Cl)ccc3C)s2)on1		inactive: 9.54%
N#CCSc1n[nH]c2nc3c(c(=O)n12)C1(CCCCC1)Cc1ccccc1-3	inconclusive: 89.1 µM [inhibitor, single point]	
CC(C)CNC(=O)COC(=O)c1cncc(Br)c1		inactive: -13.9%
O=c1c2c3c(sc2n(Cc2ccccc2F)c(=O)n1-c1ccc(Cl)cc1)CCCC3		inactive: -18.3%
Cc1ccc(NC(=O)C2CCN(S(=O)(=O)c3ccc4c(c3)NC(=O)C(C)S4)CC2)c(C)c1 (stereo not given)	inconclusive: 79.4 µM [inhibitor, partial curve, poor fit]	
COc1ccc(/C=N/NC(=O)CNC(=O)/C=C/c2ccco2)cc1OC	inconclusive: 39.8 µM [inhibitor, partial curve, poor fit]	
CN(C)C=Nc1ccc2nc3c(cc2c1)[nH]c1ccccc13	inconclusive: 35.5 µM [inhibitor, partial curve, poor fit]	
COC(=O)CCC(=O)Nc1sc2c(c1C#N)CCCC2	inconclusive: 31.6 µM [inhibitor, partial curve, poor fit]	
Cc1cc(C)nc(NS(=O)(=O)c2ccc(NC(=O)c3cc(=O)c4ccc(C)c(C)c4o3)cc2)n1	inconclusive: 100 µM [inhibitor, single point]	

Structure (SMILES)	Potency	activity change, negative = inhibition
C[n+]1ccc(/C=C/c2c[nH]c3ccccc23)cc1	inconclusive: 44.7 µM [inhibitor, partial curve, poor fit]	
COc1ccc(CNC(=O)CCC2N=C3c4ccccc4N=C(SCc4ccc(F)cc4)N3C2=O)cc1 (stereo not given)		inactive: -2.02%
CCC(=O)OC1(C)C(=O)C=C2C=C(CCCC(=O)OC)OC=C2C1=O (stereo not given)	active: 25.1 µM	
O=C(COC(=O)c1ccc(Br)o1)NCc1ccc(Cl)cc1	inconclusive: 39.8 µM [inhibitor, partial curve, poor fit]	
C=Cc1ccc(Cn2c(C(=O)O)c(CNCCc3ccccc3)c3ccc(C)cc32)cc1		inactive: -19.9%
O=C1/C(=C\c2ccc(Cl)c(Cl)c2)CN(C(=O)CCN2CCOCC2)C/C1=C/c1ccc(Cl)c(Cl)c1	inconclusive: 7.94 µM [inhibitor, partial curve, poor fit]	
CCCn1c(CCC(=O)Nc2cccc(C)c2C)nc2cccnc21		inactive: -4.61%
Cc1ccc2oc(-c3ccc(NC(=O)c4ccncc4)cc3O)nc2c1		inactive: 11.3%
CCn1cc(C(=O)N[C@@H](CC(C)C)C(=O)NCCCn2ccnc2)c(=O)c2cc3c(cc21)OCO3		inactive: -7.19%
CCn1cc(C(=O)NCCc2ccccc2)c(=O)c2cc(S(=O)(=O)N3CCCCCC3)ccc21	inconclusive: 35.5 µM [inhibitor, partial curve, poor fit]	
Oc1oc(-c2ccccc2Br)nc1C=Nc1ccc(Br)cn1	inconclusive: 14.1 µM [inhibitor, partial curve]	
CCOC(=O)c1ccc(NC(=O)COc2ccc(-n3cnnn3)cc2)cc1	inconclusive: 15.8 µM [inhibitor, partial curve, poor fit]	
Cc1sc2nc(SCC(=O)N3CC(C)OC(C)C3)n(C)c(=O)c2c1C (stereo not given)	active: 15.8 µM	
CC(NC(=O)COC(=O)c1cn(-c2ccccc2)nc1-c1cccs1)c1ccccc1 (stereo not given)	active: 79.4 µM	
O=C(CNC(=O)c1ccc(F)cc1)N/N=C/c1cc(Br)ccc1OC(=O)/C=C/c1ccco1	active: 56.2 µM	
CC(=O)N1c2ccc(S(=O)(=O)N3CCC(C(=O)Nc4cccc(Cl)c4C)CC3)cc2CC1C (stereo not given)	inconclusive: 79.4 µM [inhibitor, partial curve, poor fit]	
N#CC(C#N)=C1C=C2C=C(N3CCCCCC3)CCC2CC1 (stereo not given)	active: 50.1 µM	
CC1=C(C/C=C(\C)CCC[C@H](C)CCC[C@H](C)CCCC(C)C)C(=O)c2ccccc2C1=O	inconclusive: 50.1 µM [inhibitor, partial curve, poor fit]	
O=C(COC(=O)Cc1ccsc1)Nc1cccc(Cl)c1		inactive: -14.5%
Cc1cccc(NC(=O)Cn2cc(S(=O)(=O)N3CCCC3)c(S(=O)(=O)N3CCCC3)c2)c1C		inactive: -8.68%
COCCCn1c(SCC(=O)OC2CCCCC2)nnc1-c1ccco1		inactive: -2.08%
CCOC(=O)c1ccc2c(c1)nc(SC/C(O)=C(\C#N)c1nc3ccccc3[nH]1)n2CC	inconclusive: 7.94 µM [inhibitor, full curve, poor fit]	

Structure (SMILES)	Potency	activity change, negative = inhibition
CCC(=O)Nc1ccc(C(=O)CSc2nnc(-c3ccccc3F)n2C2CC2)cc1	inconclusive: 8.91 µM [inhibitor, partial curve, poor fit]	
COC(=O)Cc1csc(NC(=O)c2ccc3ncsc3c2)n1	inconclusive: 31.6 µM [inhibitor, full curve]	
CC(C)c1ccc(NC(=O)CN(Cc2ccccc2)S(C)(=O)=O)cc1	inconclusive: 56.2 µM [inhibitor, partial curve, poor fit]	
C=CCN1N=C(c2ccc(NC(=O)c3ccccc3)cc2)CSC1=O	inconclusive: 20 µM [inhibitor, partial curve, poor fit]	
CCOc1ccc(C2C(C(=O)Nc3ccccc3)=C(C)N=c3s/c(=C/c4cccc(OCC(=O)O)c4)c(=O)n32)cc1 (stereo not given)	inconclusive: 25.1 µM [inhibitor, partial curve, poor fit]	
Cc1ccccc1C(=O)Nc1ccc(S(=O)(=O)N2CCC(c3nc4ccccc4s3)CC2)cc1		inactive: -5.31%
CC1=Nc2ccccc2/C1=C\c1nc(-c2ccc(F)cc2)oc1O	inconclusive: 89.1 µM [inhibitor, partial curve]	
O=C(O)c1cc(-c2ccc(/C=C3\NC(=O)N(c4ccccc4)C3=O)o2)ccc1Cl	active: 3.98 µM	
COc1ccc(OC)c(CNC(=O)c2c(C)oc3ncn(CC(C)C)c(=O)c23)c1	inconclusive: 79.4 µM [inhibitor, partial curve, poor fit]	
COc1ccc2nc(NC(=O)CSc3ccccc3)sc2c1	inconclusive: 20 µM [inhibitor, partial curve, poor fit]	
COc1ccccc1C(=O)Nc1nnc(S(=O)(=O)N2CCOCC2)s1	inconclusive: 100 µM [inhibitor, partial curve, poor fit]	
COc1ccc(-c2cccc(C(=O)Nc3cccc(C(=O)O)c3)c2)cc1	inconclusive: 22.4 µM [inhibitor, partial curve, poor fit]	
COC(=O)c1ccc(-c2ccc(/C=N/NC(=O)Cc3nnc(N)s3)o2)cc1	inconclusive: 56.2 µM [inhibitor, partial curve, poor fit]	
O=C(O)c1ccc(Cn2cc(/C=C\[N+](=O)[O-])c3ccccc32)o1	active: 22.4 µM	
COc1ccc(-c2ccc(C)cc2)cc1[C@H]1[C@@H]2C=CCC[C@@]2(C)C(=O)N1Cc1ccccc1	inconclusive: 100 µM [inhibitor, partial curve, poor fit]	
CNc1nc(-c2ccccc2)[n+](-c2ccc(C)cc2)s1		inactive: -21.6%
O=C(CCc1nc2sc3c(c2c(=O)[nH]1)CCCC3)NCCOc1ccccc1	inconclusive: 15.8 µM [inhibitor, full curve, poor fit]	
CCN1CCCC1CNC(=O)c1ccc(Sc2ccc(F)cc2)c([N+](=O)[O-])c1 (stereo not given)	inconclusive: 100 µM [inhibitor, partial curve, poor fit]	
CC(=O)c1cccc(NC(=O)c2nc(-c3ccccc3)oc2C)c1	inconclusive: 50.1 µM [inhibitor, partial curve, poor fit]	
COc1ccc2[nH]c(=O)c(CN(C3CCCCC3)C(c3nnnn3Cc3ccco3)C(C)C)cc2c1 (stereo not given)	active: 17.8 µM	
Cc1cc(C)n(CCC(=O)Nc2ccc(Cl)cc2)n1		inactive: -20.8%
